Data on 31 sequences can be found in paper PMC12820563.

The other results are listed elsewhere or left out. The list includes weakly bound sequences.

The target of the test is T1, MBP-FoxP3dN (UniProt Q99JB6).
T1 sequence: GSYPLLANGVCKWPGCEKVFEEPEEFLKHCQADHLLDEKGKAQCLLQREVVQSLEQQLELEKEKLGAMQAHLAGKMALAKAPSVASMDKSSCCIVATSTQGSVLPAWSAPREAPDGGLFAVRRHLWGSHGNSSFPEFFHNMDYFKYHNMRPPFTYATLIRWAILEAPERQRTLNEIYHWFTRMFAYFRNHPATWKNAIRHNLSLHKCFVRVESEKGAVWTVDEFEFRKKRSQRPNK
The test is described as follows: PD-seq (MBP pull-down with sequencing). Particulars: 20 mM Tris-HCl pH 7.5, 100 mM NaCl, 1.5 mM MgCl2, 0.4 uM protein, 0.1 uM dsDNA library, 30 min, room temperature, amylose pull-down; high values mean tight binding; double strand, one strand shown.
For “GATGATTGTTCTCCCAGCTGATGAATTCCACAAGTCGAGTAAACAAATTTTCCTAATCTTTCTGTTCAAGCGCCATCTAC”, the binding signal (RPM ratio (pull-down/input)) came to 0.196. In the case of “GATGATTGTTCTCCCAGCTGATGAATTGAAAGGGTCGAGTAAACAAATTTTCCTAATCTTTCTGTTCAAGCGCCATCTAC” it was 0.2; in that of “GATGATTGTTCTCCCAGCTGATGAATTGACCAGATCGAGTAAACAAATTTTCCTAATCTTTCTGTTCAAGCGCCATCTAC”, 0.205. Turning to “GATGATTGTTCTCCCAGCTGATGAATTGATTTTATCGAGTAAACAAATTTTCCTAATCTTTCTGTTCAAGCGCCATCTAC”, the binding signal (RPM ratio (pull-down/input)) stood at 0.822. In the case of “GATGATTGTTCTCCCAGCTGATGAATTGGGACGTTCGAGTAAACAAATTTTCCTAATCTTTCTGTTCAAGCGCCATCTAC” it was 0.431; in that of “GATGATTGTTCTCCCAGCTGATGAATTAAAATAATCGAGTAAACAAATTTTCCTAATCTTTCTGTTCAAGCGCCATCTAC”, 0.425.

On to “GATGATTGTTCTCCCAGCTGATGAATTCTACGAATCGAGTAAACAAATTTTCCTAATCTTTCTGTTCAAGCGCCATCTAC”, for which the binding signal (RPM ratio (pull-down/input)) stood at 0.206. Consider “GATGATTGTTCTCCCAGCTGATGAATTCGAGACTTCGAGTAAACAAATTTTCCTAATCTTTCTGTTCAAGCGCCATCTAC”, for which the binding signal (RPM ratio (pull-down/input)) stood at 0.453. For the sequence “GATGATTGTTCTCCCAGCTGATGAATTTCTGCATTCGAGTAAACAAATTTTCCTAATCTTTCTGTTCAAGCGCCATCTAC”, the binding signal (RPM ratio (pull-down/input)) was found to be 6.35. “GATGATTGTTCTCCCAGCTGATGAATTAAGTCAGTCGAGTAAACAAATTTTCCTAATCTTTCTGTTCAAGCGCCATCTAC”: the binding signal (RPM ratio (pull-down/input)) stood at 0.332. In the case of “GATGATTGTTCTCCCAGCTGATGAATTGCTGTGGTCGAGTAAACAAATTTTCCTAATCTTTCTGTTCAAGCGCCATCTAC” it was 0.868. Regarding “GATGATTGTTCTCCCAGCTGATGAATTCCCAAGATCGAGTAAACAAATTTTCCTAATCTTTCTGTTCAAGCGCCATCTAC”, the binding signal (RPM ratio (pull-down/input)) came to 0.16. The value for “GATGATTGTTCTCCCAGCTGATGAATTTAAGACCTCGAGTAAACAAATTTTCCTAATCTTTCTGTTCAAGCGCCATCTAC” was 0.243. In the case of “GATGATTGTTCTCCCAGCTGATGAATTAACCTCGTCGAGTAAACAAATTTTCCTAATCTTTCTGTTCAAGCGCCATCTAC” it was 0.282; in that of “GATGATTGTTCTCCCAGCTGATGAATTATGCTCCTCGAGTAAACAAATTTTCCTAATCTTTCTGTTCAAGCGCCATCTAC”, 1.25; in that of “GATGATTGTTCTCCCAGCTGATGAATTACGTAGTTCGAGTAAACAAATTTTCCTAATCTTTCTGTTCAAGCGCCATCTAC”, 0.81. The value for “GATGATTGTTCTCCCAGCTGATGAATTTCCCTTATCGAGTAAACAAATTTTCCTAATCTTTCTGTTCAAGCGCCATCTAC” was 0.341.

On to “GATGATTGTTCTCCCAGCTGATGAATTAAACAATTCGAGTAAACAAATTTTCCTAATCTTTCTGTTCAAGCGCCATCTAC”, for which the binding signal (RPM ratio (pull-down/input)) amounted to 0.976. The value for “GATGATTGTTCTCCCAGCTGATGAATTGATGTACTCGAGTAAACAAATTTTCCTAATCTTTCTGTTCAAGCGCCATCTAC” was 1.82; that for “GATGATTGTTCTCCCAGCTGATGAATTTTGCGCGTCGAGTAAACAAATTTTCCTAATCTTTCTGTTCAAGCGCCATCTAC” was 3.39.

In the case of “GATGATTGTTCTCCCAGCTGATGAATTGGCGCATTCGAGTAAACAAATTTTCCTAATCTTTCTGTTCAAGCGCCATCTAC”, the binding signal (RPM ratio (pull-down/input)) came to 6.97. For the sequence “GATGATTGTTCTCCCAGCTGATGAATTATACTACTCGAGTAAACAAATTTTCCTAATCTTTCTGTTCAAGCGCCATCTAC”, the binding signal (RPM ratio (pull-down/input)) came out at 0.526. Regarding “GATGATTGTTCTCCCAGCTGATGAATTTTTCATCTCGAGTAAACAAATTTTCCTAATCTTTCTGTTCAAGCGCCATCTAC”, the binding signal (RPM ratio (pull-down/input)) came out at 0.246.

“GATGATTGTTCTCCCAGCTGATGAATTTGAGACATCGAGTAAACAAATTTTCCTAATCTTTCTGTTCAAGCGCCATCTAC”: the binding signal (RPM ratio (pull-down/input)) is 0.505. For the sequence “GATGATTGTTCTCCCAGCTGATGAATTCAGATACTCGAGTAAACAAATTTTCCTAATCTTTCTGTTCAAGCGCCATCTAC”, the binding signal (RPM ratio (pull-down/input)) is 0.696. For the sequence “GATGATTGTTCTCCCAGCTGATGAATTGCATGATTCGAGTAAACAAATTTTCCTAATCTTTCTGTTCAAGCGCCATCTAC”, the binding signal (RPM ratio (pull-down/input)) was 1.35. Take “GATGATTGTTCTCCCAGCTGATGAATTCTTAGAGTCGAGTAAACAAATTTTCCTAATCTTTCTGTTCAAGCGCCATCTAC”: the binding signal (RPM ratio (pull-down/input)) turned out to be 0.2. In the case of “GATGATTGTTCTCCCAGCTGATGAATTGTCGAATTCGAGTAAACAAATTTTCCTAATCTTTCTGTTCAAGCGCCATCTAC” it was 0.855; in that of “GATGATTGTTCTCCCAGCTGATGAATTTACGGGATCGAGTAAACAAATTTTCCTAATCTTTCTGTTCAAGCGCCATCTAC”, 0.363. The value for “GATGATTGTTCTCCCAGCTGATGAATTCCGACTTTCGAGTAAACAAATTTTCCTAATCTTTCTGTTCAAGCGCCATCTAC” was 1.41. Turning to “GATGATTGTTCTCCCAGCTGATGAATTTGCAGTTTCGAGTAAACAAATTTTCCTAATCTTTCTGTTCAAGCGCCATCTAC”, the binding signal (RPM ratio (pull-down/input)) was 1.19.
